Reference: PubChem BioAssay AID686979 (National Center for Advancing Translational Sciences (NCATS), 2013)
Hit rate of the full screen: of about 420,000 compounds, about 50,000 (12%) were called active. Inconclusive results, whose numbers are uncertain, are shown with a selection of clear calls. Calls follow the shape of the dose curve; as a rule, active = well fitted inhibition curve with a large enough effect; inconclusive = small, poorly fitted or top-dose-only effect; inactive = flat fitted curve, though single readings scatter. Potencies of inconclusive entries are left out as doubtful fits.

Test: qHTS for Inhibitors of human tyrosyl-DNA phosphodiesterase 1 (TDP1): qHTS in cells in presence of CPT; also: nearly all actives have a fitted effect of over 55% in size
Details: chicken DT40 Tdp1-/-;hTDP1 cells + 20 nM CPT, ATP luminescence, 48 h; activity change, negative = growth inhibition: at 46.2 µM (top of the series) unless noted
Outline: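 Chicken DT40 Tdp1-/- cells stably complemented with human TDP1 were seeded at 400 cells/well in medium containing 20 nM camptothecin, exposed to pin-transferred compounds, and grown at 37 °C for at least 48 hr. Viability was read as ATP luminescence.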
% is scaled to controls: 0 for no effect and ±100 for the full control effect; potency is read from the fitted curve at half-maximal effect; tags tell the direction and shape of the fitted curve.

Question: With CCCn1c(SC(C)C(=O)NC2CC2)nnc1-c1ccncc1 (stereo not given) as the compound, how does the Potency read?
Answer: inactive

Question: With O=C(c1ccco1)N1N=C(c2ccc3nccnc3c2)CC1c1ccccc1 (stereo not given) as the compound, how does the Potency read?
Answer: inconclusive [inhibitor, single point]

Question: With COc1ccc(C(=O)COC(=O)C2COc3ccccc3O2)c(OC)c1 (stereo not given) as the compound, how does the Potency read?
Answer: inconclusive [inhibitor, full curve, poor fit]

Question: Which Potency does the source give for COc1cccc(NC(=O)CSc2nc3c([nH]c4ccccc43)c(=O)n2C)c1 here?
Answer: inconclusive [inhibitor, single point]

Question: With Cc1cc(C(=O)Cn2nc(C(=O)O)c3ccccc3c2=O)c(C)n1CCc1ccc(F)cc1 as the compound, how does the Potency read?
Answer: active: 16.4 µM

Question: For Cc1ccc(NC(=S)N2CCC(c3nc4ccccc4s3)CC2)cc1, which Potency is on record?
Answer: inconclusive [inhibitor, partial curve]

Question: With S=C(Nc1ccccc1)Nc1ccc(OCc2ccc(Cl)cc2Cl)cc1 as the compound, how does the Potency read?
Answer: active: 18.4 µM

Question: With CN1CCN(c2c(F)cc3c(=O)c(C(=O)O)cn4c3c2SCC4)CC1 as the compound, how does the Potency read?
Answer: active: 13 µM

Question: With CCCn1c(-c2cccs2)nc2c1c(=O)[nH]c(=O)n2Cc1ccccc1 as the compound, how does the Potency read?
Answer: inconclusive [inhibitor, single point]

Question: For CN(C)S(=O)(=O)c1ccc(Cl)c(C(=O)NCC2CCCCC2)c1, which Potency is on record?
Answer: inconclusive [inhibitor, single point]

Question: For CCOc1ccc(Cc2nc(-c3nonc3N)no2)cc1OCC, which Potency is on record?
Answer: inconclusive [inhibitor, single point]

Question: With COCCNc1ncnc2c1ncn2[C@H]1CN(Cc2ccc(F)cc2)C[C@@H](CO)O1 as the compound, how does the Potency read?
Answer: inactive

Question: For COc1ccc(-c2csc(N(CCc3ccc(OC)c(OC)c3)C(=O)COc3ccccc3)n2)cc1, which Potency is on record?
Answer: inconclusive [inhibitor, partial curve]

Question: Which Potency does the source give for COC(=O)c1scc(-c2ccc(C)cc2)c1S(=O)(=O)Nc1ccc(F)cc1F here?
Answer: inactive

Question: Which Potency does the source give for CSc1nc2[nH]c(=O)n(O)c(=O)c2n1Cc1ccccc1 here?
Answer: inconclusive [inhibitor, single point]

Question: For CN(CCCNC(=O)CCC(=O)N1CCOc2ccc(Cl)cc21)Cc1ccccc1, which Potency is on record?
Answer: inconclusive [inhibitor, partial curve]

Question: With COc1cc(N=Nc2ccc(C(=O)N(C)C)cc2)c(C)cc1N as the compound, how does the Potency read?
Answer: inconclusive [inhibitor, single point]

Question: With CCc1nc2ccc(C(=O)NC3CCN(Cc4ccccc4)CC3)cn2c1N(CC)Cc1cccc(Br)c1 as the compound, how does the Potency read?
Answer: active: 14.6 µM

Question: For Cc1ccc(N2CCN(S(=O)(=O)c3cc(C(=O)Nc4cc(Cl)cc(Cl)c4)ccc3F)CC2C)cc1 (stereo not given), which Potency is on record?
Answer: inconclusive [inhibitor, single point]

Question: For Cn1c(COc2cccc3cccnc23)nnc1SCC(=O)O, which Potency is on record?
Answer: inconclusive [inhibitor, partial curve]

Question: Which Potency does the source give for Cn1c(CNC(=O)c2ccccc2F)nnc1SCc1ccc(F)cc1 here?
Answer: inactive

Question: With CC1CCN(c2ccc(-c3cccc(NC(=O)C(F)(F)F)c3)nn2)CC1 as the compound, how does the Potency read?
Answer: inconclusive [inhibitor, single point]

Question: Which Potency does the source give for COc1ccccc1P(=O)(Cc1ccccc1[N+](=O)[O-])c1ccccc1 (stereo not given) here?
Answer: inconclusive [inhibitor, single point]

Question: For O=C(Nc1ccc2c(c1)OCCO2)C(c1ccc(F)cc1)N1CCCCC1 (stereo not given), which activity change, negative = growth inhibition is on record?
Answer: inconclusive: -34.6% [inhibitor]

Question: With CC(=O)Nc1ccc(S(=O)(=O)NNC(=O)C2CCCCC2)cc1 as the compound, how does the Potency read?
Answer: inactive

Question: Which Potency does the source give for CN(C)C=Nc1nonc1N here?
Answer: inconclusive [inhibitor, single point]

Question: Which Potency does the source give for CNC(=O)COc1ccc(Cl)c2cccnc12 here?
Answer: inactive

Question: For Cc1ccc(-c2cc(C(=O)N3CCCCC3)c3ccccc3n2)cc1C, which Potency is on record?
Answer: active: 16.4 µM

Question: Which Potency does the source give for COc1ccccc1N1CCN(c2ccc(=O)n(CC(=O)NCc3ccc(OC(C)C)cc3)n2)CC1 here?
Answer: inconclusive [inhibitor, single point]

Question: For CCC(C)NS(=O)(=O)c1ccc(S(=O)(=O)N2CC=C(c3ccc(F)cc3)CC2)cc1 (stereo not given), which Potency is on record?
Answer: active: 16.4 µM

Question: Which Potency does the source give for CCCOc1ccc(C(=O)NNC(=S)NC(=O)c2ccccc2)cc1 here?
Answer: inconclusive [inhibitor, single point]

Question: Which Potency does the source give for CCOC(=O)CSc1nnc(NCC(=O)OC(C)C)c(=O)[nH]1 here?
Answer: active: 10.3 µM

Question: Which Potency does the source give for COc1ccc(Oc2c(C(F)(F)F)oc3c(CN4CCCC(C)C4)c(O)ccc3c2=O)cc1 (stereo not given) here?
Answer: inconclusive [inhibitor, single point]

Question: With Cn1nc(C(F)(F)F)c(C#N)c1N1CCN(c2cccc(C(F)(F)F)c2)CC1 as the compound, how does the Potency read?
Answer: inconclusive [inhibitor, single point]

Question: Which Potency does the source give for Cn1c(CCNC(=O)c2ccco2)nc2cc(NS(=O)(=O)c3ccc(Cl)cc3)ccc21 here?
Answer: inconclusive [inhibitor, single point]

Question: Which Potency does the source give for COc1ccc2c(c1)C=C/C2=C/c1ccc(N(C)C)cc1 here?
Answer: inconclusive [inhibitor, partial curve]

Question: For Cc1ccc(-c2csc3ncnc(N4CCN(S(=O)(=O)c5ccc(C#N)cc5)CC4)c23)cc1, which Potency is on record?
Answer: inconclusive [inhibitor, single point]

Question: With O=C(Nc1ccc(O)cc1)c1cc2ccccc2c(=O)s1 as the compound, how does the Potency read?
Answer: inconclusive [inhibitor, partial curve, poor fit]

Question: Which Potency does the source give for N#Cc1ccc(NC(=S)Nc2ccccc2)cc1 here?
Answer: inconclusive [inhibitor, single point]

Question: With Cc1nn(C)c2c1c(C(F)(F)F)cc(=O)n2CC(=O)NCCC(C)C as the compound, how does the Potency read?
Answer: inconclusive [inhibitor, single point]

Question: Which Potency does the source give for COc1cc(C(=S)N2CCCCC2)ccc1OCC(=O)Nc1ccc(F)cc1 here?
Answer: inconclusive [inhibitor, single point]

Question: For CC1=C(c2ccc(C)cc2)S(=O)(=O)NC1=NCCCN1CCN(c2ccccc2F)CC1, which Potency is on record?
Answer: inconclusive [inhibitor, single point]

Question: With CCCC(=O)N1CCN(c2ccc(NC(=O)c3ccccc3)cc2)CC1 as the compound, how does the Potency read?
Answer: inconclusive [inhibitor, single point]

Question: Which Potency does the source give for COc1ccc(-n2nc(C(=O)N3CCN(c4ccc(F)cc4)CC3)c3c4ccccc4n(C)c3c2=O)cc1 here?
Answer: inactive

Question: Which Potency does the source give for CC(=O)N(C)c1ccc(NC(=S)Nc2ccc(C(C)C)cc2)cc1 here?
Answer: active: 16.4 µM

Question: With CN(C(=O)COc1ccc(Br)cc1Cl)C1CCCCC1 as the compound, how does the Potency read?
Answer: inconclusive [inhibitor, single point]

Question: For CN(Cc1ccccc1)C(=O)c1cccc(NC(=O)Cc2ccc(NC(=O)C3CCN(C(=O)C4CCCC4)CC3)cc2)c1, which Potency is on record?
Answer: inconclusive [inhibitor, single point]

Question: Which Potency does the source give for COc1ccc(-n2nc(C(=O)Nc3cc(OC)c(OC)c(OC)c3)c(=O)n(C)c2=O)cc1 here?
Answer: inconclusive [inhibitor, partial curve, poor fit]

Question: Which Potency does the source give for O=C(Nc1ccc2oc(-c3cccnc3)nc2c1)c1ccc(-c2ccccc2OC(F)(F)F)o1 here?
Answer: active: 10.3 µM

Question: Which Potency does the source give for CCOc1ccc(CCNC(=O)COC(=O)c2nccnc2N)cc1OCC here?
Answer: inactive

Question: Which Potency does the source give for COc1ccc(C(=O)c2sc(Nc3ccccc3)c(C(=O)Nc3ccc(OC)c(OC)c3)c2N)cc1 here?
Answer: active: 25.9 µM

Question: Which Potency does the source give for Cc1sc(NC(=O)CN(Cc2ccccc2)C(=O)C2CC2)c(C(N)=O)c1C here?
Answer: active: 8.2 µM

Question: Which Potency does the source give for COc1ccc(N2CCN(C(=O)CC34CC5CC(CC(C5)C3)C4)CC2)c([N+](=O)[O-])c1 here?
Answer: active: 20.6 µM

Question: For Cn1c(C(=O)N2CCC(C(=O)NCc3ccccc3)CC2)cc2sccc21, which Potency is on record?
Answer: inactive

Question: With C=CCN(c1ccccc1)S(=O)(=O)c1cccc(C(=O)NCc2ccco2)c1 as the compound, how does the Potency read?
Answer: inconclusive [inhibitor, single point]

Question: With CCOc1cc(N2CCOCC2)c(OCC)cc1NC(=O)C1=COCCO1 as the compound, how does the Potency read?
Answer: inconclusive [inhibitor, single point]

Question: Which Potency does the source give for Cc1nn(Cc2ccccc2)c(C)c1C(=O)N1CCN(CC(=O)Nc2ccccc2Cl)CC1 here?
Answer: active: 16.4 µM

Question: With O=C(Nc1ccccc1)c1cc(C2CCCCN2C(=O)c2ccccc2)on1 (stereo not given) as the compound, how does the Potency read?
Answer: active: 20.6 µM

Question: For CCOC(=O)c1cc(C)sc1NC(=O)C1CCC1, which Potency is on record?
Answer: inconclusive [inhibitor, single point]

Question: Which Potency does the source give for CCN1CCCC1CNC(=O)C1CCN(Cc2nc(-c3cccc(Br)c3)oc2C)CC1 (stereo not given) here?
Answer: active: 5.8 µM

Question: Which Potency does the source give for CCOC(=O)c1c(NC(=O)CSc2ncnc3ccccc23)sc(C(C)=O)c1C here?
Answer: active: 8.2 µM

Question: For CCc1c(C(=O)Nc2cc(C(=O)OC)ccc2C)csc1C, which Potency is on record?
Answer: inconclusive [inhibitor, single point]

Question: With CCOC(=O)CN1C(=O)N[C@H](c2ccc(Br)cc2)C(C(C)=O)=C1C as the compound, how does the Potency read?
Answer: inconclusive [inhibitor, single point]

Question: Which Potency does the source give for O=C1NC[C@H](CCCCN2CCN(CCc3ccccc3)C(=O)C2=O)N(CC2CCCCC2)C1=O here?
Answer: inactive

Question: Which Potency does the source give for Cc1csc2nc3cc(C(N)=O)ccc3c(=O)n12 here?
Answer: inactive

Question: Which Potency does the source give for C=C1C=C(C(F)F)n2ncc(C(=O)N3CCc4ccccc4C3)c2N1 here?
Answer: inconclusive [inhibitor, single point]

Question: For O=C(O)c1ccc(Nc2nc3ccccc3n3cnnc23)cc1, which Potency is on record?
Answer: inconclusive [inhibitor, partial curve]

Question: Which Potency does the source give for COc1ccccc1NC(=O)CNC(=O)c1ccc([N+](=O)[O-])cc1 here?
Answer: inactive

Question: With COc1ccccc1CNc1cc(-c2ccccc2OC)ncn1 as the compound, how does the Potency read?
Answer: active: 4.61 µM

Question: For Cc1nonc1NC(=O)CSc1nc2ccccc2cc1C#N, which Potency is on record?
Answer: inconclusive [inhibitor, partial curve]
